# From the supplement of paper PMC8728848
# This is one part of the list.
# B1: Epa1 (Candida glabrata) (protein)
# chain: MGSSHHHHHHSSGLVPRGSHMTSSNDISLASKDPTTFPLGCSPDITTPKKGLSMELYSYDFRKKGSYPCWDAAYLDPNYPRTGYKSHRLLAKVDGVTGNINFYYHATKGCTPQLGHLPASYNYPKPLTMTNFTMLLYGYFRPKVTGFHTFTISADDLLFVNFGAGNAFDCCRRDSSADHFGNYQAYAIWGSKTAKDELTVHLDAGVYYPIRLFYNNREYDGALSFTFKTESNENTVSDFSEYFFSLDDTEEGCPGLISYD
# Experiments:
# Assay in all cases: glycan array binding signal (z-score within array); higher = stronger binding
# Settings in all cases: glycan notation: IUPAC condensed, linker removed
# [1] = target: Gal(b1-4)GlcNAc(b1-3)Gal(b1-3)GlcNAc
# How it was run: (§1)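 The binding signal is a Z-score computed within each array. Data were drawn from 3228 arrays in the Consortium for Functional Glycomics database, restricted to those with a known protein sequence. Scores were averaged over arrays of the same protein sequence at different concentrations or buffers, and over linkers, and negative values can be taken as non-binding.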
# [2] = target: Gal(b1-4)GlcNAc(b1-3)Gal(b1-4)Glc
# How it was run: as §1
# [3] = target: Gal(b1-4)GlcNAc(b1-3)Gal(b1-4)GlcNAc
# How it was run: as §1
# [4] = target: Gal(b1-4)GlcNAc(b1-3)Gal(b1-4)GlcNAc(b1-2)Man(a1-3)[Gal(b1-4)GlcNAc(b1-3)Gal(b1-4)GlcNAc(b1-2)Man(a1-6)]Man(b1-4)GlcNAc(b1-4)GlcNAc
# How it was run: as §1
# [5] = target: Gal(b1-4)GlcNAc(b1-3)Gal(b1-4)GlcNAc(b1-2)Man(a1-3)[Gal(b1-4)GlcNAc(b1-3)Gal(b1-4)GlcNAc(b1-2)Man(a1-6)]Man(b1-4)GlcNAc(b1-4)[Fuc(a1-6)]GlcNAc
# How it was run: as §1
# [6] = target: Gal(b1-4)GlcNAc(b1-3)Gal(b1-4)GlcNAc(b1-2)[Gal(b1-4)GlcNAc(b1-3)Gal(b1-4)GlcNAc(b1-6)]Man(a1-6)[Gal(b1-4)GlcNAc(b1-3)Gal(b1-4)GlcNAc(b1-2)Man(a1-3)]Man(b1-4)GlcNAc(b1-4)GlcNAc
# How it was run: as §1
# [7] = target: Gal(b1-4)GlcNAc(b1-3)Gal(b1-4)GlcNAc(b1-2)[Gal(b1-4)GlcNAc(b1-3)Gal(b1-4)GlcNAc(b1-6)]Man(a1-6)[Gal(b1-4)GlcNAc(b1-3)Gal(b1-4)GlcNAc(b1-2)Man(a1-3)]Man(b1-4)GlcNAc(b1-4)[Fuc(a1-6)]GlcNAc
# How it was run: as §1
# [8] = target: Gal(b1-4)GlcNAc(b1-3)Gal(b1-4)GlcNAc(b1-3)Gal(b1-4)GlcNAc
# How it was run: as §1
# [9] = target: Gal(b1-4)GlcNAc(b1-3)Gal(b1-4)GlcNAc(b1-3)Gal(b1-4)GlcNAc(b1-2)Man(a1-3)[Gal(b1-4)GlcNAc(b1-3)Gal(b1-4)GlcNAc(b1-3)Gal(b1-4)GlcNAc(b1-2)Man(a1-6)]Man(b1-4)GlcNAc(b1-4)GlcNAc
# How it was run: as §1
# [10] = target: Gal(b1-4)GlcNAc(b1-3)Gal(b1-4)GlcNAc(b1-3)Gal(b1-4)GlcNAc(b1-2)Man(a1-3)[Gal(b1-4)GlcNAc(b1-3)Gal(b1-4)GlcNAc(b1-3)Gal(b1-4)GlcNAc(b1-2)Man(a1-6)]Man(b1-4)GlcNAc(b1-4)[Fuc(a1-6)]GlcNAc
# How it was run: as §1
# [11] = target: Gal(b1-4)GlcNAc(b1-3)Gal(b1-4)GlcNAc(b1-3)Gal(b1-4)GlcNAc(b1-2)[Gal(b1-4)GlcNAc(b1-3)Gal(b1-4)GlcNAc(b1-3)Gal(b1-4)GlcNAc(b1-6)]Man(a1-6)[Gal(b1-4)GlcNAc(b1-3)Gal(b1-4)GlcNAc(b1-3)Gal(b1-4)GlcNAc(b1-2)Man(a1-3)]Man(b1-4)GlcNAc(b1-4)[Fuc(a1-6)]GlcNAc
# How it was run: as §1
# [12] = target: Gal(b1-4)GlcNAc(b1-3)Gal(b1-4)GlcNAc(b1-3)Gal(b1-4)GlcNAc(b1-3)Gal(b1-4)GlcNAc(b1-2)Man(a1-3)[Gal(b1-4)GlcNAc(b1-3)Gal(b1-4)GlcNAc(b1-3)Gal(b1-4)GlcNAc(b1-3)Gal(b1-4)GlcNAc(b1-2)Man(a1-6)]Man(b1-4)GlcNAc(b1-4)GlcNAc
# How it was run: as §1
# [13] = target: Gal(b1-4)GlcNAc(b1-3)Gal(b1-4)GlcNAc(b1-3)Gal(b1-4)GlcNAc(b1-3)Gal(b1-4)GlcNAc(b1-2)Man(a1-3)[Gal(b1-4)GlcNAc(b1-3)Gal(b1-4)GlcNAc(b1-3)Gal(b1-4)GlcNAc(b1-3)Gal(b1-4)GlcNAc(b1-2)Man(a1-6)]Man(b1-4)GlcNAc(b1-4)[Fuc(a1-6)]GlcNAc
# How it was run: as §1
# [14] = target: Gal(b1-4)GlcNAc(b1-3)Gal(b1-4)GlcNAc(b1-3)Gal(b1-4)GlcNAc(b1-3)Gal(b1-4)GlcNAc(b1-2)[Gal(b1-4)GlcNAc(b1-3)Gal(b1-4)GlcNAc(b1-3)Gal(b1-4)GlcNAc(b1-3)Gal(b1-4)GlcNAc(b1-6)]Man(a1-6)[Gal(b1-4)GlcNAc(b1-3)Gal(b1-4)GlcNAc(b1-3)Gal(b1-4)GlcNAc(b1-3)Gal(b1-4)GlcNAc(b1-2)Man(a1-3)]Man(b1-4)GlcNAc(b1-4)[Fuc(a1-6)]GlcNAc
# How it was run: as §1
# [15] = target: Gal(b1-4)GlcNAc(b1-3)Gal(b1-4)GlcNAc(b1-3)Gal(b1-4)GlcNAc(b1-3)Gal(b1-4)GlcNAc(b1-3)Gal(b1-4)GlcNAc(b1-2)Man(a1-3)[Gal(b1-4)GlcNAc(b1-3)Gal(b1-4)GlcNAc(b1-3)Gal(b1-4)GlcNAc(b1-3)Gal(b1-4)GlcNAc(b1-3)Gal(b1-4)GlcNAc(b1-2)Man(a1-6)]Man(b1-4)GlcNAc(b1-4)GlcNAc
# How it was run: as §1
# [16] = target: Gal(b1-4)GlcNAc(b1-3)Gal(b1-4)GlcNAc(b1-3)Gal(b1-4)GlcNAc(b1-3)Gal(b1-4)GlcNAc(b1-3)Gal(b1-4)GlcNAc(b1-2)Man(a1-3)[Gal(b1-4)GlcNAc(b1-3)Gal(b1-4)GlcNAc(b1-3)Gal(b1-4)GlcNAc(b1-3)Gal(b1-4)GlcNAc(b1-3)Gal(b1-4)GlcNAc(b1-2)Man(a1-6)]Man(b1-4)GlcNAc(b1-4)[Fuc(a1-6)]GlcNAc
# How it was run: as §1
# [17] = target: Gal(b1-4)GlcNAc(b1-3)Gal(b1-4)GlcNAc(b1-3)Gal(b1-4)GlcNAc(b1-3)Gal(b1-4)GlcNAc(b1-3)Gal(b1-4)GlcNAc(b1-2)[Gal(b1-4)GlcNAc(b1-3)Gal(b1-4)GlcNAc(b1-3)Gal(b1-4)GlcNAc(b1-3)Gal(b1-4)GlcNAc(b1-3)Gal(b1-4)GlcNAc(b1-6)]Man(a1-6)[Gal(b1-4)GlcNAc(b1-3)Gal(b1-4)GlcNAc(b1-3)Gal(b1-4)GlcNAc(b1-3)Gal(b1-4)GlcNAc(b1-3)Gal(b1-4)GlcNAc(b1-2)Man(a1-3)]Man(b1-4)GlcNAc(b1-4)[Fuc(a1-6)]GlcNAc
# How it was run: as §1
# [18] = target: Gal(b1-4)GlcNAc(b1-3)Gal(b1-4)GlcNAc(b1-3)Gal(b1-4)GlcNAc(b1-3)Gal(b1-4)GlcNAc(b1-3)Gal(b1-4)GlcNAc(b1-3)Gal(b1-4)GlcNAc(b1-2)Man(a1-3)[Gal(b1-4)GlcNAc(b1-3)Gal(b1-4)GlcNAc(b1-3)Gal(b1-4)GlcNAc(b1-3)Gal(b1-4)GlcNAc(b1-3)Gal(b1-4)GlcNAc(b1-3)Gal(b1-4)GlcNAc(b1-2)Man(a1-6)]Man(b1-4)GlcNAc(b1-4)GlcNAc
# How it was run: as §1
# [19] = target: Gal(b1-4)GlcNAc(b1-3)Gal(b1-4)GlcNAc(b1-3)GalNAc
# How it was run: as §1
binder,measurement,setting,value
B1,glycan array binding signal (z-score),[1],-0.155
same,glycan array binding signal (z-score),[2],0.551
same,glycan array binding signal (z-score),[3],0.031
same,glycan array binding signal (z-score),[4],0.327
same,glycan array binding signal (z-score),[5],1.04
same,glycan array binding signal (z-score),[6],1.39
same,glycan array binding signal (z-score),[7],3.08
same,glycan array binding signal (z-score),[8],-0.021
same,glycan array binding signal (z-score),[9],0.944
same,glycan array binding signal (z-score),[10],1.77
same,glycan array binding signal (z-score),[11],3.06
same,glycan array binding signal (z-score),[12],0.374
same,glycan array binding signal (z-score),[13],0.354
same,glycan array binding signal (z-score),[14],1.76
same,glycan array binding signal (z-score),[15],0.744
same,glycan array binding signal (z-score),[16],0.385
same,glycan array binding signal (z-score),[17],1.62
same,glycan array binding signal (z-score),[18],0.53
same,glycan array binding signal (z-score),[19],-0.122
